This is an account of results in article PMC4336329 (PLoS ONE, 2015).

Hit rate of the full screen: of about 310,000 compounds, about 2,200 (0.71%) showed an effect of 50% or more. Effects have a minus sign here. The list shows a part of the results.

For the assay, the target named is human ether-à-go-go-related gene (hERG) potassium channel (human, UniProt Q12809). Nature of the assay: primary screen, population patch clamp on CHO cells stably expressing hERG.
Sequence of human ether-à-go-go-related gene (hERG) potassium channel (Q12809 whole entry, looked up): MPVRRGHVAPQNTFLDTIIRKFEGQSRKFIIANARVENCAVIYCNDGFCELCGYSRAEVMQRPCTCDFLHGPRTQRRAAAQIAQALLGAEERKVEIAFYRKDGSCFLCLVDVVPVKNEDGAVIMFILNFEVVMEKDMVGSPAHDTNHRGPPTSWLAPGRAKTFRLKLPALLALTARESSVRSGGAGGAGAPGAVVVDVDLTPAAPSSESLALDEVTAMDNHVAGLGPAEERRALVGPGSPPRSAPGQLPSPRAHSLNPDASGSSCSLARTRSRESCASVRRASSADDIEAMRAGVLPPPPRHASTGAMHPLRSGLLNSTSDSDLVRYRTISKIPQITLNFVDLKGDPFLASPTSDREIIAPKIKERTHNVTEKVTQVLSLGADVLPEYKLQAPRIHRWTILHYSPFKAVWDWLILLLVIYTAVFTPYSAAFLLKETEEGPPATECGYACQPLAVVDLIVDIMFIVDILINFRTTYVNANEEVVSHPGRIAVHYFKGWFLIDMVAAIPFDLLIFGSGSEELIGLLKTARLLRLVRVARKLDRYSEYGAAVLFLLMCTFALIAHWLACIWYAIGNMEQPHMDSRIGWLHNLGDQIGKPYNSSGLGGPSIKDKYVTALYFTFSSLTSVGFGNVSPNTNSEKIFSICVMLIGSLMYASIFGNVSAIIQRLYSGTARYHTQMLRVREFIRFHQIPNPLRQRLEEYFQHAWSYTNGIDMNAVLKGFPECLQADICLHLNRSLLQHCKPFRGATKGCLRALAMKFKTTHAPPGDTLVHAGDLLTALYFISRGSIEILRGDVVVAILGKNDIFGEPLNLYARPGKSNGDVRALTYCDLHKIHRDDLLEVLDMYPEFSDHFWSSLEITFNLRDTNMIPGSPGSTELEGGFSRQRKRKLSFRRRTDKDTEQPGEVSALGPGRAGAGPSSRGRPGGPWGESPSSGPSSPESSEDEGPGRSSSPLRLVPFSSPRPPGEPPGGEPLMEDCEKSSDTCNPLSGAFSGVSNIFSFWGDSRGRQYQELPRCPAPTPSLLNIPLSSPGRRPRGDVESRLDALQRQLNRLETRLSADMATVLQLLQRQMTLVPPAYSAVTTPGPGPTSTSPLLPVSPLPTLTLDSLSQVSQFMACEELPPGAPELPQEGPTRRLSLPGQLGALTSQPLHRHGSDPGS
Take `CCOc1ccc(NC(=O)C2CC(=O)N(CCc3ccc(OC)c(OC)c3)C2)cc1OCC` (stereo not shown): the “hERG current change (%, negative = inhibition) at 1uM” value was 10.4%.

For `O=C(O)/C=C/C(=O)Nc1ccccc1-c1ccccc1NC(=O)/C=C/C(=O)O`, the “hERG current change (%, negative = inhibition) at 1uM” value came out at 16.4%.

On to `Cc1cc(C)cc(OCC(=O)Nc2cccc(-c3nnc(-c4ccco4)o3)c2)c1`, for which the “hERG current change (%, negative = inhibition) at 1uM” value turned out to be 6.43%.

For `Cc1ccc(Cn2nnc(C(=O)Nc3cc(C)ccc3C)c2N)cc1`, the “hERG current change (%, negative = inhibition) at 1uM” value was found to be 8.18%.

With `Cc1ccc(OCC(=O)N(C)CC(=O)Nc2cccc(F)c2)cc1`, the “hERG current change (%, negative = inhibition) at 1uM” value is 8.3%.

With `Cc1ccc(C(=O)Nc2ccc(C(=O)O)cc2NC(=O)c2ccc(C)cc2)cc1`, the “hERG current change (%, negative = inhibition) at 1uM” value is on record as 9.55%.

`O=C(CCc1ccccc1)Nc1ccc2ccccc2n1`: the “hERG current change (%, negative = inhibition) at 1uM” value is on record as -2.39%.

For `CCn1c(CNc2ccc(F)cc2)nnc1SCCN1CCCCC1`, the “hERG current change (%, negative = inhibition) at 1uM” value is listed as 7.67%.

As for `COC(=O)c1ccc(NC(=O)C2CCCO2)cc1` (stereo not shown), the “hERG current change (%, negative = inhibition) at 1uM” value is 5.7%.

Regarding `O=c1ccn(Cc2ccccc2)c2ccccc12`, the “hERG current change (%, negative = inhibition) at 1uM” value was determined as 7.82%.

As for `COC(=O)CNC(c1ccccc1)c1cc(Br)ccc1N` (stereo not shown), the “hERG current change (%, negative = inhibition) at 1uM” value is -2.27%.

In the case of `COc1ccc(OC)c(NC(=O)CSc2nnc(CNC(=O)c3ccccc3F)o2)c1`, the “hERG current change (%, negative = inhibition) at 1uM” value is 14.5%.

As for `CC(C)(C)C(=O)Nc1sc2c(c1C(=O)Nc1ccccn1)CCCC2`, the “hERG current change (%, negative = inhibition) at 1uM” value is reported as -2.96%.

Take `COc1ccc(CCn2c(C3CCCCC3)nc3c(c(=O)c4ccccc4n3C)c2=O)cc1OC`: the “hERG current change (%, negative = inhibition) at 1uM” value turned out to be 9.2%.

Take `CC/C(=N\NC(N)=O)c1ccc(OC(F)F)cc1`: the “hERG current change (%, negative = inhibition) at 1uM” value is on record as -7.16%.

On to `C/C(N)=C(/C#N)C(=O)COC(=O)c1cc(-c2ccccc2)nc2ccc(Br)cc12`, for which the “hERG current change (%, negative = inhibition) at 1uM” value turned out to be 11%.

On to `O=C1CC(N2CCC(O)(c3ccc(Br)cc3)CC2)C(=O)N1c1ccc(Cl)cc1` (stereo not shown), for which the “hERG current change (%, negative = inhibition) at 1uM” value was -5.91%.

As to `Cc1ccc(CN2CCN(/N=C/C(Br)=C\c3ccccc3)CC2)cc1`, the “hERG current change (%, negative = inhibition) at 1uM” value came to 9.76%.

As for `Cc1ccc(OCc2cc(C(=O)NCc3ccc(OC(F)(F)F)cc3)no2)cn1`, the “hERG current change (%, negative = inhibition) at 1uM” value is reported as 7.67%.

Turning to `CCOC(=O)CC(=O)NC(C)(C)CCCCC(C)(C)NC(=O)CC(=O)OCC`, the “hERG current change (%, negative = inhibition) at 1uM” value is 14%.

Take `COc1ccc(C2NC(=O)NC(C)=C2C(=O)OCC2CCCCC2)cc1OC` (stereo not shown): the “hERG current change (%, negative = inhibition) at 1uM” value was found to be 9.95%.

On to `C/C(=N/Oc1nc(C)cc(C)n1)c1ccc(Cl)cc1Cl`, for which the “hERG current change (%, negative = inhibition) at 1uM” value worked out at 15%.

Regarding `C/C(=N\Nc1ccccn1)c1ccc(N2CCOCC2)cc1`, the “hERG current change (%, negative = inhibition) at 1uM” value is recorded as 3.01%.

In the case of `Cc1cccc(NC(=O)N2CCC(C(=O)c3ccc(F)cc3)CC2)c1`, the “hERG current change (%, negative = inhibition) at 1uM” value was 6.21%.

For the compound `CSc1ccccc1OCc1cc(C(=O)N2CCc3[nH]cnc3C2c2ccccn2)no1` (stereo not shown), the “hERG current change (%, negative = inhibition) at 1uM” value worked out at 8.48%.

For `Cc1nn(CC(=O)NCc2cc3ccccc3[nH]2)c(C)c1[N+](=O)[O-]`, the “hERG current change (%, negative = inhibition) at 1uM” value amounted to 13%.

As to `COc1ccc(/C=C/C(=O)O)cc1COc1cccc(C)c1`, the “hERG current change (%, negative = inhibition) at 1uM” value came to 9.98%.

As to `Cc1cc2nncn2c2ccccc12`, the “hERG current change (%, negative = inhibition) at 1uM” value was determined as 15.7%.

Consider `O=C(CCN1C(=O)COc2ccccc21)NCCN1CCc2ccccc2C1`, for which the “hERG current change (%, negative = inhibition) at 1uM” value was -12.3%.

In the case of `CC(C(=O)NCc1ccccc1)n1cc([N+](=O)[O-])cn1` (stereo not shown), the “hERG current change (%, negative = inhibition) at 1uM” value is reported as 9.6%.

Take `CCN1C(=S)N[C@@H](c2ccccc2)C(C(=O)OC)=C1C`: the “hERG current change (%, negative = inhibition) at 1uM” value stood at 15.4%.

In the case of `COCCNC(=S)Nc1ccc(S(=O)(=O)Nc2ncccn2)cc1`, the “hERG current change (%, negative = inhibition) at 1uM” value was determined as 5.43%.

On to `C/C(=N\NC(=O)c1c(Cl)cnn1C)c1cccc(NC(=O)c2ccc(C)cc2)c1`, for which the “hERG current change (%, negative = inhibition) at 1uM” value came to 5.05%.

Regarding `NC(=O)c1ccsc1NC(=O)CCc1ccccc1`, the “hERG current change (%, negative = inhibition) at 1uM” value worked out at 12.2%.

`CCn1cc(/C=C(\NC(=O)c2ccccc2F)C(=O)NCCN2CCOCC2)c2ccccc21`: the “hERG current change (%, negative = inhibition) at 1uM” value was 9.09%.

In the case of `COc1cc(C(=O)NCCC(=O)NCCCN2CCCCC2)cc(OC)c1OC`, the “hERG current change (%, negative = inhibition) at 1uM” value was 3.53%.

Take `COc1ccc(NC(=O)Nc2cnccn2)c(OC)c1`: the “hERG current change (%, negative = inhibition) at 1uM” value is listed as -7.6%.

As for `COc1ccc(CCn2c(C)c(C(C)=O)c(C(C)=O)c2C)cc1OC`, the “hERG current change (%, negative = inhibition) at 1uM” value is on record as 11.6%.

With `O=C(O)C(S)C(S)C(=O)O` (stereo not shown), the “hERG current change (%, negative = inhibition) at 1uM” value came out at 14.2%.

In the case of `CC(CC(=O)Nc1ccc(Br)cc1F)S(=O)(=O)c1ccc2c(c1)NC(=O)CO2` (stereo not shown), the “hERG current change (%, negative = inhibition) at 1uM” value was -4.3%.

With `Cc1nn(CC(=O)Nc2ccc(N3CCOCC3)cc2)c(C)c1Br`, the “hERG current change (%, negative = inhibition) at 1uM” value came to 11.1%.

With `CCCS(=O)(=O)N1CCCC(C(=O)NCCN(CC)c2ccccc2)C1` (stereo not shown), the “hERG current change (%, negative = inhibition) at 1uM” value is recorded as -1.62%.

As to `NC1=NC(=O)C(CC(=O)Nc2ccc3c(c2)OCO3)S1` (stereo not shown), the “hERG current change (%, negative = inhibition) at 1uM” value turned out to be 0.639%.

As for `Cc1ccc2nc(Cl)c(C3CC(c4cccs4)=NN3C(=O)CCCC(=O)O)cc2c1` (stereo not shown), the “hERG current change (%, negative = inhibition) at 1uM” value is 13.4%.

`COCCN=c1scc(C)n1/N=C/C1CC2C=CC1C2` (stereo not shown): the “hERG current change (%, negative = inhibition) at 1uM” value came to 4.08%.

For `NCCCS(=O)(=O)O.O.[Na+]`, the “hERG current change (%, negative = inhibition) at 1uM” value is 2.82%.

On to `O=C(O)CC(CC(=O)NCC(O)c1ccccc1)c1ccccc1` (stereo not shown), for which the “hERG current change (%, negative = inhibition) at 1uM” value came out at 3.29%.

For `O=C(NC1CCCCCCC1)c1ccc(F)c(S(=O)(=O)N2CCOCC2)c1`, the “hERG current change (%, negative = inhibition) at 1uM” value stood at 8.48%.

In the case of `NNc1nc2sc3c(c2c(=O)[nH]1)CCc1ccccc1-3`, the “hERG current change (%, negative = inhibition) at 1uM” value came out at 10.3%.

Consider `CC1CCc2nn(CC(=O)NCCC3=CCCCC3)cc2C1` (stereo not shown), for which the “hERG current change (%, negative = inhibition) at 1uM” value worked out at 12.7%.

Take `CSc1nnc(OC(=O)N(C)C)n1-c1ccc(Cl)cc1`: the “hERG current change (%, negative = inhibition) at 1uM” value is 11.8%.

In the case of `CC(=O)NCc1ccc(S(=O)(=O)NC2CCN(Cc3ccccc3)CC2)cc1`, the “hERG current change (%, negative = inhibition) at 1uM” value is 12.3%.

`Cc1nccn1CCCNC(=O)c1nc(Cn2cc([N+](=O)[O-])cn2)no1`: the “hERG current change (%, negative = inhibition) at 1uM” value stood at 14.8%.

Consider `Cn1cc(C(=O)N2CCC3(CC2)OCCO3)c2c3ccccc3n(C)c2c1=O`, for which the “hERG current change (%, negative = inhibition) at 1uM” value is 16.2%.

In the case of `Cl.OC(COc1ccc(F)cc1)CN1CCN(c2ccccc2F)CC1` (stereo not shown), the “hERG current change (%, negative = inhibition) at 1uM” value is reported as -49.5%.

With `Cc1cc(-c2nc(-c3ccncc3)no2)ccc1[N+](=O)[O-]`, the “hERG current change (%, negative = inhibition) at 1uM” value is listed as 5.88%.

As for `O=C(NC1CCC(CC2CCC(NC(=O)C(Cl)Cl)CC2)CC1)C(Cl)Cl` (stereo not shown), the “hERG current change (%, negative = inhibition) at 1uM” value was found to be 15.7%.

In the case of `CC(=O)Nc1ccc(NC(=O)CSc2nc(C)nc3sc(C)c(C)c23)cc1`, the “hERG current change (%, negative = inhibition) at 1uM” value is given as 15.2%.
